{"source": "paper PMC4336329", "about": "(PLoS ONE, 2015)", "note": "About 2,200 (0.71%) of roughly 310,000 compounds showed an effect of 50% or more. Effects have a minus sign here. Some of the results follow.", "data": [{"biological_target": "human ether-à-go-go-related gene (hERG) potassium channel (human, UniProt Q12809)", "sequence (Q12809 whole entry, looked up)": "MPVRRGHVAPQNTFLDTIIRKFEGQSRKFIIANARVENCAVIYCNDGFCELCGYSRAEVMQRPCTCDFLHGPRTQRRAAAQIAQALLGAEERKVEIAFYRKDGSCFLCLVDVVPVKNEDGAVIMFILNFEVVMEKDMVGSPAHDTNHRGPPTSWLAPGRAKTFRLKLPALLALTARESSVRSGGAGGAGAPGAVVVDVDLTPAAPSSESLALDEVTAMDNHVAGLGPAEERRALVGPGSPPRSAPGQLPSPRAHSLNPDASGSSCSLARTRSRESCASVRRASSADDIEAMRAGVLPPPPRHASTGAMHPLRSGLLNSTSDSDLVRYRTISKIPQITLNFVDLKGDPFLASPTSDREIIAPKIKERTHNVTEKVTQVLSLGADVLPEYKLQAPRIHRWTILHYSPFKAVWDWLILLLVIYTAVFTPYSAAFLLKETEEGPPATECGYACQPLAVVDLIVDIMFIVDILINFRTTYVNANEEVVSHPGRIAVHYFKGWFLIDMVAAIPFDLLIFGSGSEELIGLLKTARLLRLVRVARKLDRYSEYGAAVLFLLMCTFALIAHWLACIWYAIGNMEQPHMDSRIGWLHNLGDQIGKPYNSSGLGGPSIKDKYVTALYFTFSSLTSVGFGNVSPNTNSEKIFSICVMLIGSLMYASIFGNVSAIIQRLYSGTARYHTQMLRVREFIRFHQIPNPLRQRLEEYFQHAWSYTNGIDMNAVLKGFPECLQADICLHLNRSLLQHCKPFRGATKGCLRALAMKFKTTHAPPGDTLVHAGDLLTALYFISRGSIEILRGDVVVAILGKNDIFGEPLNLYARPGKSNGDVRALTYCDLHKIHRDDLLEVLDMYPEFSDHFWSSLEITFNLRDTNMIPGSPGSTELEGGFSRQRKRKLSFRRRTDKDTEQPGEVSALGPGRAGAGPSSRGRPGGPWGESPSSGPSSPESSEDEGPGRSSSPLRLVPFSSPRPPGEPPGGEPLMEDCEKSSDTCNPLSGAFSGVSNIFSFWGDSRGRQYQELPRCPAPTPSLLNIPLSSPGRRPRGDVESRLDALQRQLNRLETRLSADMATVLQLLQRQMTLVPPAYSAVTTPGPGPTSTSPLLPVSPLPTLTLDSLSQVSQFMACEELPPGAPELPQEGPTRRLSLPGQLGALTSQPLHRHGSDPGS", "assay": "primary screen, population patch clamp on CHO cells stably expressing hERG", "units": {"hERG current change (%, negative = inhibition) at 1uM": "%"}, "values": [{"smiles": "Cc1ccc2occ(-c3nn[nH]n3)c(=O)c2c1", "hERG current change (%, negative = inhibition) at 1uM": 10.3}, {"smiles": "CCNC(=S)N(CCc1c(C)[nH]c2ccccc12)Cc1cc(OC)c(OC)c(OC)c1", "hERG current change (%, negative = inhibition) at 1uM": 8.89}, {"smiles": "CCCC(=O)Nc1nnc(SCC(=O)NCc2ccco2)s1", "hERG current change (%, negative = inhibition) at 1uM": 12.1}, {"smiles": "Cc1cc(C)n(-c2ccc3nnc(C)n3n2)n1", "hERG current change (%, negative = inhibition) at 1uM": 11.7}, {"smiles": "CCOc1ccc2[nH]c(=O)c(CN(Cc3nnnn3Cc3ccco3)C3CCCCC3)cc2c1", "hERG current change (%, negative = inhibition) at 1uM": 10.7}, {"smiles": "Cc1cc(C)c2cccc(NC(=S)NC(=O)c3ccccc3)c2n1", "hERG current change (%, negative = inhibition) at 1uM": -21.2}, {"smiles": "O=C(COC(=O)c1ccc(F)cc1F)NC(=O)Nc1ccc2c(c1)OCCO2", "hERG current change (%, negative = inhibition) at 1uM": 14.1}, {"smiles": "Cc1ccnc(NS(=O)(=O)c2ccc(NC(=O)Cc3ccc(F)cc3)cc2)n1", "hERG current change (%, negative = inhibition) at 1uM": 14.5}, {"smiles": "COc1cc(C)c(S(=O)(=O)NC2CC(C)(C)NC(C)(C)C2)cc1C", "hERG current change (%, negative = inhibition) at 1uM": 9.51}, {"smiles": "CC(=O)Nc1ccc(C(=O)N/C(=C/c2ccccc2)C(=O)NCc2ccco2)cc1", "hERG current change (%, negative = inhibition) at 1uM": 12.4}, {"smiles": "CCN(CC)Cc1c(C(=O)N/N=C/c2ccc(OCc3ccccc3C)cc2)nnn1-c1nonc1N", "hERG current change (%, negative = inhibition) at 1uM": -1.92}, {"smiles": "O=C(C1=C[C@@H](c2ccc(C(F)(F)F)cc2)C[C@@H](OCc2ccc(CO)cc2)O1)N1CCOCC1", "hERG current change (%, negative = inhibition) at 1uM": 2.55}, {"smiles": "O=C(CSCc1ccc([N+](=O)[O-])cc1)NCCSCc1ccccc1", "hERG current change (%, negative = inhibition) at 1uM": -14.8}, {"smiles": "Cc1cc(C)c(OCCCCN(C)C)c(Br)c1.O=C(O)C(=O)O", "hERG current change (%, negative = inhibition) at 1uM": 1.33}, {"smiles": "COCCCNC(=O)/C=C/c1cccc(Cl)c1", "hERG current change (%, negative = inhibition) at 1uM": 7.31}, {"smiles": "O=c1c(F)cn(C2CCCO2)c(=O)n1Cc1c(Cl)cccc1Cl", "note": "(stereo not shown)", "hERG current change (%, negative = inhibition) at 1uM": -1.82}, {"smiles": "CCN(CC)C(=O)OCc1c(-c2cccc(OC)c2)ncc2ccccc12", "hERG current change (%, negative = inhibition) at 1uM": 10.4}, {"smiles": "CCOC(=O)N1CCc2c(sc3c2c(=O)n(Cc2ccccc2)c(=O)n3Cc2cccc(C)c2)C1", "hERG current change (%, negative = inhibition) at 1uM": 5.19}, {"smiles": "O=C(c1ccccc1F)N1CCC(N2CCCCCC2)CC1", "hERG current change (%, negative = inhibition) at 1uM": -2.42}, {"smiles": "CC(=O)Nc1cccc(C(=O)N/N=C/c2cccc(C)n2)c1", "hERG current change (%, negative = inhibition) at 1uM": 16}, {"smiles": "Cc1c(C(=O)N(Cc2ccc(Cl)cc2)C2CCS(=O)(=O)C2)oc2ccccc12", "note": "(stereo not shown)", "hERG current change (%, negative = inhibition) at 1uM": 6.06}, {"smiles": "COc1ccc(-n2cnnc2SCC(=O)Nc2nc(C)c(Cl)cc2Cl)cc1", "hERG current change (%, negative = inhibition) at 1uM": -8.71}, {"smiles": "COCc1c(C(=O)N/N=C\\c2ccccn2)nnn1-c1nonc1N", "hERG current change (%, negative = inhibition) at 1uM": 14.5}, {"smiles": "CCOc1ccc(-c2c(C(=O)N/N=C/c3cccc(Br)c3)nnn2-c2nonc2N)cc1", "hERG current change (%, negative = inhibition) at 1uM": 9.11}, {"smiles": "CN(CCOc1ccc(-c2ccn(S(=O)(=O)c3cccc4ccccc34)n2)cc1)c1ccccn1", "hERG current change (%, negative = inhibition) at 1uM": 12.5}, {"smiles": "CCCCn1c(N)c(N(CC(C)C)C(=O)CSc2nnc(C)n2-c2ccc(OC)cc2)c(=O)[nH]c1=O", "hERG current change (%, negative = inhibition) at 1uM": 9.69}, {"smiles": "NC(=O)c1cc(S(=O)(=O)N2CCCC2)ccc1OCCOc1ccccc1", "hERG current change (%, negative = inhibition) at 1uM": 7.4}, {"smiles": "Nc1cccc(-c2nc3ncccc3o2)c1", "hERG current change (%, negative = inhibition) at 1uM": 14.4}, {"smiles": "Cc1cccc(C(=O)NCC(c2cccs2)N2CCOCC2)c1", "note": "(stereo not shown)", "hERG current change (%, negative = inhibition) at 1uM": 17.6}, {"smiles": "CCn1ncc(/C=N\\NC(=O)c2csc3ccccc23)c1C", "hERG current change (%, negative = inhibition) at 1uM": 10.1}, {"smiles": "O=C(CSc1n[nH]c(=O)n1C1CC1)c1ccc(F)cc1", "hERG current change (%, negative = inhibition) at 1uM": 7.86}, {"smiles": "COc1ccc(C(=O)NCC(c2cccnc2)N2CCN(c3ccc(F)cc3)CC2)cc1OC", "note": "(stereo not shown)", "hERG current change (%, negative = inhibition) at 1uM": -18.3}, {"smiles": "COc1ccc2c(Cl)c(C(N)=O)sc2c1", "hERG current change (%, negative = inhibition) at 1uM": 5.78}, {"smiles": "CC1CCCC(C)N1C(=O)Cn1cnc2cc([N+](=O)[O-])ccc2c1=O", "note": "(stereo not shown)", "hERG current change (%, negative = inhibition) at 1uM": 7.78}, {"smiles": "Cc1cccc(CCN2CCN=C2Nc2ccccc2)c1", "hERG current change (%, negative = inhibition) at 1uM": 1.25}, {"smiles": "NC(N)=NS(=O)(=O)c1ccc(NC(=S)NC(=O)c2ccncc2)cc1", "hERG current change (%, negative = inhibition) at 1uM": 4.18}, {"smiles": "Cc1nnc(SCC(=O)N(C)c2ccccc2)n1-n1cccc1", "hERG current change (%, negative = inhibition) at 1uM": 12.9}, {"smiles": "O=C(CCC(=O)N1CCN(S(=O)(=O)c2ccc(Cl)cc2)CC1)NCc1ccccc1", "hERG current change (%, negative = inhibition) at 1uM": 10.1}, {"smiles": "O=C(NC1CCCC1)C(c1ccccn1)N(Cc1ccc(F)cc1)C(=O)c1csnn1", "note": "(stereo not shown)", "hERG current change (%, negative = inhibition) at 1uM": 7.39}, {"smiles": "CC1(C)CC(=O)C2=C(C1)N(c1ccc(F)cc1)C(=O)C2(NC(=O)c1ccccc1)C(F)(F)F", "note": "(stereo not shown)", "hERG current change (%, negative = inhibition) at 1uM": 10.7}, {"smiles": "O=c1c2ccccc2c(C=NCCO)c(O)n1-c1ccccc1", "hERG current change (%, negative = inhibition) at 1uM": 11}, {"smiles": "Cn1nnnc1Sc1ncnc2scc(-c3ccccc3Br)c12", "hERG current change (%, negative = inhibition) at 1uM": 17.9}, {"smiles": "N#CCc1nc(C(c2ccccc2)c2ccccc2)no1", "hERG current change (%, negative = inhibition) at 1uM": 11.3}, {"smiles": "Cc1ccc(OCc2nnc(SCC(=O)O)n2-c2ccccc2)cc1", "hERG current change (%, negative = inhibition) at 1uM": 15.1}, {"smiles": "COc1ccc(CCn2c(-c3ccc(F)cc3)nc3c(c(=O)c4ccccc4n3C)c2=O)cc1OC", "hERG current change (%, negative = inhibition) at 1uM": 11.1}, {"smiles": "O=C(NC(=S)NNC(=O)[C@H]1C[C@@H]1c1ccccc1)c1ccc(F)cc1", "hERG current change (%, negative = inhibition) at 1uM": 8.06}, {"smiles": "Cn1cc(Br)c(C(=O)N2CCN(c3cccc(Cl)c3)CC2)n1", "hERG current change (%, negative = inhibition) at 1uM": 1.75}, {"smiles": "Nc1c(S(=O)(=O)[O-])cc(NC(=O)c2ccccc2)c2c1C(=O)c1ccccc1C2=O.[Na+]", "hERG current change (%, negative = inhibition) at 1uM": 7.18}, {"smiles": "CCOC(=O)C1=NNC(C(=O)c2ccccc2)C1c1ccc(Cl)cc1", "note": "(stereo not shown)", "hERG current change (%, negative = inhibition) at 1uM": 14.8}, {"smiles": "CCOc1ccc(S(=O)(=O)NCC(=O)N(C)Cc2cccnc2)cc1", "hERG current change (%, negative = inhibition) at 1uM": 4.32}, {"smiles": "O=[N+]([O-])c1ccc(Nc2ccc(N3CCOCC3)cc2)c([N+](=O)[O-])c1", "hERG current change (%, negative = inhibition) at 1uM": 12.6}, {"smiles": "O=C(C1CCN(S(=O)(=O)N2CCCCC2)CC1)N1CCCCC1", "hERG current change (%, negative = inhibition) at 1uM": 7.74}, {"smiles": "O=C(Nc1cccnc1Oc1ncnc2cc(Cl)ccc12)c1ccc(F)cc1", "hERG current change (%, negative = inhibition) at 1uM": 2.09}, {"smiles": "COC(=O)c1cccc(CSc2nnc(-c3ccco3)n2-c2ccccc2)c1", "hERG current change (%, negative = inhibition) at 1uM": -8.32}, {"smiles": "CC(C)(C)S(=O)(=O)c1cnc(N2CCCC2)nc1N", "hERG current change (%, negative = inhibition) at 1uM": 10.1}]}]}
